According to PubChem BioAssay AID1956 (SRMLSC, 2009):
The other results are listed elsewhere or left out. Further columns of the screen follow, without active or inactive calls.

Assay: compounds boosting herpes simplex virus growth – fold increase, host cell viability (AID 1956); note: tested in PC3 cells
Settings: HSV replication augmentation in cells; fold increase: measured here: primary screen fold increase 10 uM, at 10 µM, stronger effect = higher value; viability: measured here: host cell viability series, at 25 µM, stronger effect = lower value

SMILES	fold increase	viability [%]
Nc1cccc(S(=O)(=O)Nc2ccc(Br)cc2)c1	1.34	87.4
CC(C)(C)c1nc(CN2CCOCC2)ccc1O	1.44	94.2
Cc1ccc(Cn2c(CN3CCOCC3)nc3c2c(=O)[nH]c(=O)n3C)cc1	1.36	98
CCOc1ccc(C2CC(c3c(O)c4ccccc4oc3=O)=NN2c2ccccc2)cc1OC (stereo unspecified)	1.65	93.5
Cc1ccc(C(=O)N2CCCC(c3nc4c(nnn4Cc4ccccc4)c(=O)[nH]3)C2)cc1 (stereo unspecified)	1.38	96.9
CC(=O)Nc1ccc(S(=O)(=O)NC2(C(F)(F)F)N=C(c3ccccc3)NC2=O)cc1 (stereo unspecified)	1.62	91.2
COc1ccccc1-c1cc(C(=O)N/N=C/C=C/c2ccccc2[N+](=O)[O-])c2ccccc2n1	1.18	
C[N+]1=C(/C=C/Nc2ccccc2Cl)C(C)(C)c2ccccc21	1.69	59.2
CC1=C/C(=C\C=C(C#N)C#N)N(C)c2ccccc21	4.8	95.7
CCCc1nc2oc3cc(OC)ccc3c(=O)c2c(=O)n1Cc1ccco1	1.71	102
CCOC(=O)C1=C(CSc2nc(-c3ccccc3)ccc2C#N)OC(N)=C(C#N)C1c1cccnc1 (stereo unspecified)	1.74	93.2
CCN1/C(=C/c2ccc3cc(C)ccc3[n+]2CC)Sc2ccccc21	7.5	20.4
CC(=O)c1cc(NC(=O)c2ccc(C)cc2)c(=O)oc1/C=C/N(C)C	1.09	88.6
Cc1cc(=O)[nH]c(N2CCOCC2)n1	1.42	95.3
COc1ccc(C2CC(c3ccco3)n3ncnc3N2)cc1 (stereo unspecified)	2.02	99.3
Clc1nc(-c2ccccc2)cc(-c2ccc(Br)cc2)n1	1.45	96.6
CC1(C)CC(=O)C(C=NCCN2CCN(C(=S)Nc3ccc(F)cc3)CC2)=C(O)C1	1.39	92.9
CCN1c2ccccc2NC2C1C(C(C)=O)C(=O)N2c1ccc(Cl)cc1 (stereo unspecified)	1.35	89.7
Fc1ccc(Br)cc1C1C=C(c2ccc(Br)cc2)Nc2ncnn21 (stereo unspecified)	1.88	50.5
COc1cccc(C2=CC(c3ccc(C)cc3)n3ncnc3N2)c1 (stereo unspecified)	1.43	87.3
O=C1/C(=C/c2ccc(N3CCCC3)cc2)NC(=S)N1C1CC1	1.83	88.6
NCCn1c(-c2ccccc2)cc(C(=O)O)c1-c1ccccc1F	1.42	93
CCn1c(NN)nc2sc3c(c2c1=O)CCC3	1.39	
COC(=O)C1=C(C(=O)c2ccc(C)cc2)C(c2ccc(O)c(OC)c2)n2nnnc2N1 (stereo unspecified)	1.95	99.1

SMILES	fold increase	viability [%]
CC[n+]1c(/C=C/C=C/N(C(C)=O)c2ccccc2)sc2cc(OC)ccc21	4.07	44.9
CCN(CC)c1ccc(/C=C2\SC(=O)N(C(C)C)C2=O)o1	1.54	89.5
CC(C)(C)SCCNS(=O)(=O)c1ccc(C#N)cc1	1.42	97.5
O=S(=O)(c1cccc(-c2cn3cc(Cl)ccc3n2)c1)N1CCOCC1	1.43	93
COc1ccccc1-n1c(SCC(=O)Nc2ccc(C)cc2)nc(O)cc1=O	1.32	97.5
CSc1nc(Cl)c(Cc2ccc(OC(C)C)cc2)c(N(C)C)n1	1.43	62.5
CCOC(=O)c1c(CN2CCCCC2)n(C)c2cc(Br)c(O)cc12	1.48	82.1
COc1cccc2[nH]c3c(N4CCC(C)CC4)ncnc3c12	1.36	85.8
O=[N+]([O-])c1ccc(/C=C/C2=NN(c3ccccc3)C(c3ccco3)C2)cc1 (stereo unspecified)	7.15	91.2
Cc1c(=O)n(OCc2ccccc2)c2ccccc2[n+]1[O-]	3.57	97.2
c1ccc(N2CCN(c3nc4ccccc4n4nnnc34)CC2)cc1	1.54	88
CN1/C(=C\C(=S)NC(=O)c2cccc(Br)c2)C(C)(C)c2ccccc21	1.67	56.2
COc1cc(C2C(C#N)=C(N)Oc3n[nH]c(-c4cccs4)c32)cc(OC)c1O (stereo unspecified)	1.34	89.8
OC(CNCc1ccccc1)c1ccccc1 (stereo unspecified)	1.37	96.8
CCOC(=O)CCSc1nc(C)cc(C(F)(F)F)c1C#N	1.62	98.8
O=C1c2cccc3c([N+](=O)[O-])ccc(c23)C(=O)N1c1ccccn1	2.44	1.67
Fc1ccc(-n2c(-c3ccco3)nc3nc4ccccc4nc32)cc1	1.58	92.3
O=C(O)CSCC(=O)Nc1ccc(C2CCCCC2)cc1	1.43	94.4
O=C(O)C1Sc2[nH]c(=O)sc2C2c3ccc(O)cc3OC(=O)C12 (stereo unspecified)	1.37	96
Cc1cn2c(N)c(C=C3C=C(Cl)C(=O)C(Cl)=C3)c(=O)nc2s1	1.39	111
CCN1CCc2c(sc(NC(=S)NC(=O)c3ccco3)c2C(N)=O)C1	1.86	90
CN(C)c1ccc(/C=C2\C(=N)N3C(=NC2=O)Sc2cc(S(C)(=O)=O)ccc23)cc1	3.42	96
CC(C)C1CC(C(F)(F)F)n2nc(C(=O)O)cc2N1 (stereo unspecified)	1.33	101
CC1CCCCN1C(=O)Cn1c(=O)n(CCC(=O)NCc2ccco2)c(=O)c2sccc21 (stereo unspecified)	1.46	

SMILES	fold increase	viability [%]
Cc1[nH]nc(-c2ccc(OCc3cnn(-c4ccccc4)c3)cc2O)c1Oc1ccc(Cl)cc1	1.16	
C=CCc1ccccc1OCC(O)Cn1ccnc1C (stereo unspecified)	1.59	90.8
COc1ccc(S(=O)(=O)/N=C2/NC(=O)/C(=C/c3ccco3)S2)cc1	1.08	
O=C1c2ccccc2-c2ncnc3c(N4CCOCC4)cc(N4CCOCC4)c1c23	1.67	84.7
COc1ccc2c(C)cc(SCC(=O)N3CCOCC3)nc2c1	1.72	102
Cc1cc(C)n2cc(CSc3nnc(SCc4cn5c(C)cc(C)nc5n4)s3)nc2n1	1.46	
NNc1nc(-c2ccccc2Cl)nc2sc3c(c12)CCCC3	1.36	75.3
CCCCC1CCCC12NC(=O)NC2=O (stereo unspecified)	1.45	103
Cc1ccc(N2NC3(CCN(C(N)=O)CC3)NC2=O)cc1	1.47	101
O=C(O)CNC(=O)CCCn1nnc2ccccc2c1=O	1.36	96.4
CCN(CC)c1ccc(C=C(c2nnnn2-c2ccc(C)cc2)c2nnnn2-c2ccc(C)cc2)cc1	1.56	91
CCCCC(CCCC)=N/N=C/c1c(O)n(CC)c2cc(C3=NNC(=O)CC3)ccc12	1.36	92.1
O=C(c1c(Cl)cccc1Cl)N1CCN(c2ccccn2)CC1	1.37	94.8
COc1ccc(-c2c(C(C)=O)c(C)nc3sc4c(=N)n(N)cnc4c23)cc1	1.97	101
Cc1c(Cl)cccc1NC(=S)NCc1ccc(Cl)cc1	1.25	
CCN1CCN(Cc2c(O)ccc3c2O/C(=C\c2ccc(C)cc2)C3=O)CC1	1.48	96.8
Cc1cccc(NC(=O)C2CCCN2/C=C/C(=O)C(F)(F)F)c1C (stereo unspecified)	1.32	
CN1CCCN(C(=O)Cc2c(Cl)cccc2Cl)c2nc3ccccc3nc21	3.31	95.7
COC(=O)C1=C(O)C(C(=O)OC)C(c2ccc(C)cc2)C(C#N)(C#N)C1c1ccc(C)cc1 (stereo unspecified)	1.54	71.3
O=c1ccc2cc3c4c(c2o1)CCCN4CCC3	1.33	96.2
Cc1ccc(NS(=O)(=O)c2cc([N+](=O)[O-])ccc2N/N=C/c2sc(N3CCOCC3)nc2-c2ccccc2)c(C)c1	1.92	22.9
C(=C\c1ccco1)/c1nc2ccccc2[nH]1	1.32	
S=C(c1cn(CCOc2ccccc2)c2ccccc12)N1CCCC1	1.11	
COc1ccc(NC(=S)NCCC(c2ccccc2)c2ccccc2)c(OC)c1	1.11	

SMILES	fold increase	viability [%]
COc1ccc(-c2cc(C(F)(F)F)c3c(n2)sc2c(O)cc(=O)[nH]c23)c(OC)c1	1.98	
O=C(Cn1cc2c(n1)CCCCC2)NCCCN1CCOCC1	1.33	95.2
CCCCOc1ncnc2c1[nH]c1ccc(C)cc12	1.32	
O=C(O)C(Cc1ccccc1)N1C(=O)/C(=C/c2cccs2)SC1=S (stereo unspecified)	1.64	86.7
CC(C)CN1C(=O)/C(=C/c2c(N3CCc4ccccc4C3)nc3ccccn3c2=O)SC1=S	5.54	
CC[N+](C)(CC)CC(O)COCC1COc2ccccc2O1 (stereo unspecified)	1.33	99.3
Fc1ccc(C2=CC(c3ccc(Br)o3)n3ncnc3N2)cc1 (stereo unspecified)	5.9	94
COc1ccc(S(=O)(=O)C(C#N)c2nc3ccccc3nc2N2CCCCC2)cc1 (stereo unspecified)	1.41	103
COC(=O)c1cc(NC(=O)c2c(Cl)nc3sccn23)cc(C(=O)OC)c1	1.12	
COc1ccc(C(c2c(O)nc(SC)n(C)c2=O)c2c(O)nc(SC)n(C)c2=O)cc1O	1.55	90.2
Cc1nn(CC(=O)OC(C)C(=O)Nc2ccccc2[N+](=O)[O-])c(C)c1[N+](=O)[O-] (stereo unspecified)	1.53	104
O=c1cc2oc3cc(O)c(O)cc3c(-c3ccccc3O)c-2cc1O	1.96	
O=[N+]([O-])c1cc(-c2cnc3ccccc3n2)ccc1Oc1ccc(Cl)cc1	1.39	94.1
COc1ccc(C)cc1NC(=O)CSc1nnc(CC(=O)Nc2ccccc2C)n1C	1.33	100
CC(C)(C)OC(=O)N/N=C/c1cc(N=Nc2ccccc2)ccc1O	1.4	95.9
CCOc1ccccc1/C=N/NC(=O)Cc1csc(Nc2cccc(C(F)(F)F)c2)n1	1.16	
CCN1CC=C2C(C#N)=C(N)C(C#N)(C#N)C(CCc3ccccc3)C2C1 (stereo unspecified)	2.96	87.9
O=C(N/N=C/c1sc2ccccc2c1O)c1ccccc1	1.62	
CCOC(=O)C(NC(=O)c1ccccc1Cl)(Nc1sc2c(c1C(N)=O)CCC2)C(F)(F)F (stereo unspecified)	1.5	103
COc1cc(OC)cc(C(=O)NCc2ccc3c(c2)cc(C)n3C)c1	1.52	95.9
CCc1nnc(NC(=O)Cc2ccc(OC)c(OC)c2)s1	1.34	95.8
CN1CC=C2C(C#N)=C(N)C(C#N)(C#N)C(Cc3ccccc3)C2C1 (stereo unspecified)	1.32	
CC1(C)Cc2c(c(N3CCOCC3)nc3sc4c(NN)ncnc4c23)CS1	1.51	14.4
